First the molecules themselves.
T1: UNK ZnF1-3 (human, UniProt Q9C0B0 31-174)
T1 sequence: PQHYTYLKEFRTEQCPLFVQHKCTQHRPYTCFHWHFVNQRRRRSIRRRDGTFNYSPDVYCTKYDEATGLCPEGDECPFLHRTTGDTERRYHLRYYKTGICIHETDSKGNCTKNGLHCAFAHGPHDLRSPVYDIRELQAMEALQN

B1: chr9:14812383:14812384:-_ENSMUSG00000031934_ENSMUST00000164273|mus_mus|mus_mus_mus_hu_True|78_98 (ssRNA)
RNA: GGGAGUUCUACAGUCCGACGAUCAUAGCCCAGGUAGAUACAUGCCAACAGUAUAAUCACAAAUGUCAGCAGGCGGCAGCUAAUGUACUUGAUGAUUAAAUUAUUAGAAUUUUUCUUUGUCUUCAAGUACUGCUCCACAAUUGGCAACAGAGGAUUGAGCAUCA
B2: chr7:7679991:7679992:-_ENSG00000106399_ENST00000396682|hu_hu|hu_hu_hu_mus_False|8_88 (ssRNA)
RNA: GGGAGUUCUACAGUCCGACGAUCUGGGAUGAAUCUUUUCCAGCUUCCCUACGAAGCACACGGGCCGGUCGAUAUACUGUGGUAACAUGCUGGCGUUGACGCGCGCUUUGGGGAGCUGCAUUAUGUCCACCAUGAUUCUGCCGCCAACAGAGGAUUGAGCAUCA
B3: chr4:48853911:48853912:+_ENSG00000109180_ENST00000264312|hu_mus|motif|central (ssRNA)
RNA: GGGAGUUCUACAGUCCGACGAUCCUCGUUCAUAGAAGCACUAAAUGGAAUUGGCUCAUAACGAGGAAGCGCCUCCUUUUCGGUGUUGUCUGCUGCUGGAGAUGUCCCGAAAGAGGACUGACCACUCACAUUUGAGUCAAAUUUCAACAGAGGAUUGAGCAUCA
B4: chr17:87835246:87835247:-_ENSMUSG00000036438_ENSMUST00000040440|mus_mus|FALSE|FALSE (ssRNA)
RNA: GGGAGUUCUACAGUCCGACGAUCGGGACCUCAUCACUGUCCCCAGCUCCUUUGUUGUUAUUGUCCCAUCCCCGUCCUUGUCAAAUAGUGAGAAAGCUUCUUUGAACUCUGCAAUCUGCUCUUCAGUCAGUUGGUCAGCCAUGCCAACAGAGGAUUGAGCAUCA
B5: chr4:115894766:115894767:+_ENSMUSG00000028698_ENSMUST00000030464|mus_hu|mus_mus_mus_hu_True|28_108 (ssRNA)
RNA: GGGAGUUCUACAGUCCGACGAUCUUCACACGGAAAUUGUACUUCGGGUUUUCCAACGGCCAGUACCAGUCCGGCCAAACUACCCGAACAGGGUCCUCCCCCUCUCUUCUCUCCUCCACAACAAAAUGCCCCCGAACUUUCAAGCAACAGAGGAUUGAGCAUCA
B6: chr2:49629323:49629324:+_ENSMUSG00000026764_ENSMUST00000028102|mus_mus|motif|central (ssRNA)
RNA: GGGAGUUCUACAGUCCGACGAUCUCAAAUGCAGUCGGCAUUAUAAGCCCCAACCAUAACCACUAUCUUCAAUAACAUUCGGAUCAUCACCCCAACGGCUGGCAGGCAGAGGUUAUUUGUCUAAACCAUCUGGCUGCACUCCUACAACAGAGGAUUGAGCAUCA
B7: 69587733_69587853_1851_3pUTR_ENSMUSG00000042133_ENSMUST00000090858|mouse|control|control (ssRNA)
RNA: GGGAGUUCUACAGUCCGACGAUCUUGUAACUGUGUUUACUUUUAGUCAGAUCCCGUUCUCUACUCCUGGACUGUGCACGUCUAUCCUUUUCUUUACUUUUGCUAUGAUCAUGUUCAUUACUUUUUGAUUCUACCUGUUUGGAGCAACAGAGGAUUGAGCAUCA
B8: chr7:141445308:141445309:+_ENSG00000106028_ENST00000265304|hu_hu|hu_hu_hu_mus_False|98_98 (ssRNA)
RNA: GGGAGUUCUACAGUCCGACGAUCUAUGAUUGUUGUUGCUUGUCGCCUCACAUUGUUUUUAUCCAUGUACUCGCCAUAGUCCACUUUCCCUUCCACAAAUAUACGAGCCCCCUUUUUCACAUACUGAUAUGCCACAUCUCUGAGCAACAGAGGAUUGAGCAUCA
B9: chr18:90710673:90710674:+_ENSMUSG00000024614_ENSMUST00000025515|mus_hu|FALSE|FALSE (ssRNA)
RNA: GGGAGUUCUACAGUCCGACGAUCGUUGCCUAAUAUAAAUUCUAAACUUAGCUAAAAUGAAGGCCUCAAAAAUAAUUUAUCUACAAUAAACAUACCAAACUGUUACUUUAAAAAAAAGAGUUUUUAGACAUUGCUUUGGAAAGACAACAGAGGAUUGAGCAUCA
B10: chr10:75239141:75239142:-_ENSG00000107758_ENST00000394829|hu_hu|FALSE|FALSE (ssRNA)
RNA: GGGAGUUCUACAGUCCGACGAUCUACUUCUAUCAUGGUUUUCUCUCUCCGAAGGAUGGCAGCACCCUCAUUGAUAAUUCUAAGCGCAAUUUCUUCAUCUACUCGACCUUCUUUCACCAAGUGGUUCUUCAGAACAUCAACCCUCAACAGAGGAUUGAGCAUCA
B11: chr2:181380236:181380237:+_ENSMUSG00000002455_ENSMUST00000002529|mus_hu|FALSE|FALSE (ssRNA)
RNA: GGGAGUUCUACAGUCCGACGAUCGCCAUGGUUCUUCUCGAAGUACGCGGCGCGCAGCCACACACUCUUCUUGCUGGGGAACACCUGCAGGGCGUAGGCGUAGAUGGCUCGUGCACACUCCAGGGCAUUGUGGGCUACACAACUCAACAGAGGAUUGAGCAUCA
B12: 106645464_106645835_1224_ncRNA_ENSMUSG00000020719_ENSMUST00000133426|mouse|control|control (ssRNA)
RNA: GGGAGUUCUACAGUCCGACGAUCAUGGCAGGCCACCCAUCUCUCCUCAUUUUUCUGGUAAGUUCAUCACAUCUUCUUUUGGUUUCAACAAAAACAAUAGUUUUAUUCUCCUUCUCACUCAUGAUUUCUUCCAUCAGACGAAUACAACAGAGGAUUGAGCAUCA
B13: chr8:38095079:38095080:+_ENSG00000085788_ENST00000520272|hu_hu|FALSE|FALSE (ssRNA)
RNA: GGGAGUUCUACAGUCCGACGAUCAGAUUCCAGUUUCUUUUUCCAUUCAUCCAAAGUUACAGCAAGCAUGUAAGUUUCCUCUAAAACUUGGCUGAAGCUCUCCGAGUAGGGAACAUACUUAUUGUCUUUGUCCCCCUUGUAAAACAACAGAGGAUUGAGCAUCA
B14: chr2:48026839:48026840:+_ENSG00000116062_ENST00000540021|hu_hu|hu_hu_hu_mus_False|18_78 (ssRNA)
RNA: GGGAGUUCUACAGUCCGACGAUCAUAGUGAGCCACUAGCGUCCUAAAUCUGGAACAAUGGCGAUCAUCCGAAAACUGGCCGAUGAAAAACUUGCCCAGUGAAGUGUCCACAAAGCACACACCAUAUACACGAGUGUGACCAGACAACAGAGGAUUGAGCAUCA

The other results are listed elsewhere or left out.

The target of the assay is T1, UNK ZnF1-3. Put plainly: nsRBNS (natural sequence RNA bind-n-seq); RBNS binding buffer (assumed for nsRBNS): 25 mM Tris pH 7.5, 150 mM KCl, 3 mM MgCl2, 0.01% Triton X-100, 500 ug/ml BSA, 20 U/ml SUPERase-In, 4 C; UNK is unkempt and MSI1 is Musashi-1; names of the RNAs are library labels; protein concentration not given here; high values mean tight binding.
B1 displayed a binding signal of 1.58 enrichment R. For the molecule B2, the binding signal was 0.484 enrichment R.

Regarding B3, the binding signal was 0.982 enrichment R.

Molecule B4 gave a binding signal of 0.982 enrichment R. In the case of B5, the binding signal was 1.05 enrichment R. In the case of B6, the binding signal turned out to be 1.09 enrichment R. In the case of B7 it was 0.206 enrichment R.

Consider B8, for which the binding signal is 0.619 enrichment R. With B9, the binding signal turned out to be 2.09 enrichment R. In the case of B10 it was 0.827 enrichment R. With B11, the binding signal is 0.921 enrichment R. B12 had a binding signal of 0.777 enrichment R. In the case of B13 it was 0.809 enrichment R. In turn, B14 returned a binding signal of 1.36 enrichment R.

(Values after article PMC12136788.)
